Test results from the supplement of paper PMC8728848.
This is one part of the list.

Key:
Experiment in all cases: glycan array binding signal (z-score within array); higher = stronger binding
Conditions in all cases: glycan notation: IUPAC condensed, linker removed
Fuc(a1-2)Gal = biological target: Fuc(a1-2)Gal
How it was run: (§1)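 The binding signal is a Z-score computed within each array. Data were drawn from 3228 arrays in the Consortium for Functional Glycomics database, restricted to those with a known protein sequence. Scores were averaged over arrays of the same protein sequence at different concentrations or buffers, and over linkers, and negative values can be taken as non-binding.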

Fuc(a1-2)Gal(b1-3)GalNAc = biological target: Fuc(a1-2)Gal(b1-3)GalNAc
How it was run: as §1

[1] = biological target: Fuc(a1-2)Gal(b1-3)GalNAc(b1-3)Gal
How it was run: as §1

[2] = biological target: Fuc(a1-2)Gal(b1-3)GalNAc(b1-3)Gal(a1-4)Gal(b1-4)Glc
How it was run: as §1

[3] = biological target: Fuc(a1-2)Gal(b1-3)GalNAc(b1-3)Gal(b1-4)Glc
How it was run: as §1

[4] = biological target: Fuc(a1-2)Gal(b1-3)GalNAc(b1-4)[Neu5Ac(a2-3)]Gal(b1-4)Glc
How it was run: as §1

[5] = biological target: Fuc(a1-2)Gal(b1-3)[Fuc(a1-4)]GlcNAc
How it was run: as §1

Fuc(a1-2)Gal(b1-4)Glc = biological target: Fuc(a1-2)Gal(b1-4)Glc
How it was run: as §1

Fuc(a1-2)Gal(b1-4)GlcNAc = biological target: Fuc(a1-2)Gal(b1-4)GlcNAc
How it was run: as §1

[6] = biological target: Fuc(a1-2)Gal(b1-4)GlcNAc(b1-3)Gal(b1-4)GlcNAc
How it was run: as §1

[7] = biological target: Fuc(a1-2)Gal(b1-4)GlcNAc(b1-3)Gal(b1-4)GlcNAc(b1-3)Gal(b1-4)GlcNAc
How it was run: as §1

[8] = biological target: Fuc(a1-2)Gal(b1-4)[Fuc(a1-3)]GalNAc(b1-3)Gal(b1-4)[Fuc(a1-3)]GlcNAc
How it was run: as §1

[9] = biological target: Fuc(a1-2)Gal(b1-4)[Fuc(a1-3)]GalNAc(b1-3)Gal(b1-4)[Fuc(a1-3)]GlcNAc(b1-3)Gal(b1-4)[Fuc(a1-3)]GalNAc
How it was run: as §1

[10] = biological target: Fuc(a1-2)Gal(b1-4)[Fuc(a1-3)]GlcNAc
How it was run: as §1

Fuc(a1-2)GlcNAc = biological target: Fuc(a1-2)GlcNAc
How it was run: as §1

Fuc(a1-2)[Gal(a1-3)]Gal = biological target: Fuc(a1-2)[Gal(a1-3)]Gal
How it was run: as §1

[11] = biological target: Fuc(a1-2)[Gal(a1-3)]Gal(b1-3)GlcNAc
How it was run: as §1

[12] = biological target: Fuc(a1-2)[Gal(a1-3)]Gal(b1-4)Glc
How it was run: as §1

[13] = biological target: Fuc(a1-2)[Gal(a1-3)]Gal(b1-4)GlcNAc
How it was run: as §1

[14] = biological target: Fuc(a1-2)[Gal(a1-3)]Gal(b1-4)[Fuc(a1-3)]GlcNAc
How it was run: as §1

[15] = biological target: Fuc(a1-2)[Gal(a1-4)]Gal(b1-4)GalNAc
How it was run: as §1

[16] = biological target: Fuc(a1-2)[GalNAc(a1-3)]Gal
How it was run: as §1

[17] = biological target: Fuc(a1-2)[GalNAc(a1-3)]Gal(b1-3)GlcNAc
How it was run: as §1

[18] = biological target: Fuc(a1-2)[GalNAc(a1-3)]Gal(b1-4)Glc
How it was run: as §1

[19] = biological target: Fuc(a1-2)[GalNAc(a1-3)]Gal(b1-4)GlcNAc
How it was run: as §1

[20] = biological target: Fuc(a1-2)[GalNAc(a1-3)]Gal(b1-4)[Fuc(a1-3)]GlcNAc
How it was run: as §1

[21] = biological target: Fuc(a1-2)[GalNAc(a1-4)]Gal(b1-4)GlcNAc
How it was run: as §1

Fuc(a1-3)GlcNAc = biological target: Fuc(a1-3)GlcNAc
How it was run: as §1

[22] = biological target: Fuc(a1-3)[Gal(b1-4)]GlcNAc
How it was run: as §1

[23] = biological target: Fuc(a1-3)[Gal(b1-4)]GlcNAc(b1-4)Gal(b1-4)[Fuc(a1-3)]GlcNAc
How it was run: as §1

[24] = biological target: Fuc(a1-3)[Gal(b1-4)]GlcNAc(b1-4)Gal(b1-4)[Fuc(a1-3)]GlcNAc(b1-4)Gal(b1-4)[Fuc(a1-3)]GlcNAc
How it was run: as §1

[25] = biological target: Fuc(a1-3)[Gal3S(b1-4)]GlcNAc
How it was run: as §1

[26] = biological target: Fuc(a1-3)[GalNAc(b1-4)]Gal(b1-4)GlcNAc
How it was run: as §1

Fuc(a1-4)GlcNAc = biological target: Fuc(a1-4)GlcNAc
How it was run: as §1

Fuc(b1-3)GlcNAc = biological target: Fuc(b1-3)GlcNAc
How it was run: as §1

Gal(a1-2)Gal = biological target: Gal(a1-2)Gal
How it was run: as §1

Gal(a1-3)Gal = biological target: Gal(a1-3)Gal
How it was run: as §1

Gal(a1-3)Gal(b1-3)Glc = biological target: Gal(a1-3)Gal(b1-3)Glc
How it was run: as §1

Gal(a1-3)Gal(b1-3)GlcNAc = biological target: Gal(a1-3)Gal(b1-3)GlcNAc
How it was run: as §1

Gal(a1-3)Gal(b1-4)GlcNAc = biological target: Gal(a1-3)Gal(b1-4)GlcNAc
How it was run: as §1

[27] = biological target: Gal(a1-3)Gal(b1-4)[Fuc(a1-3)]GalNAc
How it was run: as §1

Gal(a1-3)GlcNAc = biological target: Gal(a1-3)GlcNAc
How it was run: as §1

[28] = biological target: Gal(a1-3)[Gal(a1-4)]Gal(b1-4)GlcNAc
How it was run: as §1

Gal(a1-4)Gal(b1-4)Gal = biological target: Gal(a1-4)Gal(b1-4)Gal
How it was run: as §1

Gal(a1-4)Gal(b1-4)GalNAc = biological target: Gal(a1-4)Gal(b1-4)GalNAc
How it was run: as §1

Gal(a1-4)GlcNAc = biological target: Gal(a1-4)GlcNAc
How it was run: as §1

Gal(a1-6)Glc = biological target: Gal(a1-6)Glc
How it was run: as §1

Gal(b1-2)Gal = biological target: Gal(b1-2)Gal
How it was run: as §1

Gal(b1-3)Gal = biological target: Gal(b1-3)Gal
How it was run: as §1

Gal(b1-3)GalNAc = biological target: Gal(b1-3)GalNAc
How it was run: as §1

[29] = biological target: Gal(b1-3)GalNAc(b1-3)Gal(a1-4)Gal(b1-4)Glc
How it was run: as §1

[30] = biological target: Gal(b1-3)GalNAc(b1-3)Gal(b1-4)Glc
How it was run: as §1

[31] = biological target: Gal(b1-3)GalNAc(b1-3)Gal(b1-4)GlcNAc
How it was run: as §1

[32] = biological target: Gal(b1-3)GalNAc(b1-4)Gal(b1-4)Glc
How it was run: as §1

[33] = biological target: Gal(b1-3)GalNAc(b1-4)[Neu5Ac(a2-3)]Gal(b1-4)Glc
How it was run: as §1

[34] = biological target: Gal(b1-3)[Fuc(a1-4)]GlcNAc
How it was run: as §1

[35] = biological target: Gal(b1-3)[Fuc(a1-4)]GlcNAc(b1-3)Gal(b1-4)GlcNAc
How it was run: as §1

[36] = biological target: Gal(b1-3)[Fuc(a1-4)]GlcNAc(b1-3)Gal(b1-4)[Fuc(a1-3)]GlcNAc
How it was run: as §1

[37] = biological target: Gal(b1-3)[GlcNAc(b1-6)]GalNAc
How it was run: as §1

[38] = biological target: Gal(b1-3)[GlcNAc(b1-6)]GlcNAc
How it was run: as §1

B1: CVNH0 (Neurospora crassa), Q7S6U4 (protein)
chain: GSHIGPYMSFHVTAEDARIEVRDNRTILFARLRREDGEWNDASYELDQIIGNNDGHFQWGGQNFTETAEDIRFHPKEGAAEQPILRARLRDCNGEFHDRDVNLTEIVENVNGEFQAKF
- glycan array binding signal (z-score) (Fuc(a1-2)Gal): -0.372
- glycan array binding signal (z-score) (Fuc(a1-2)Gal(b1-3)GalNAc): -0.418
- glycan array binding signal (z-score) [1]: -0.416
- glycan array binding signal (z-score) [2]: 0.803
- glycan array binding signal (z-score) [3]: 3.75
- glycan array binding signal (z-score) [4]: -0.373
- glycan array binding signal (z-score) [5]: 0.342
- glycan array binding signal (z-score) (Fuc(a1-2)Gal(b1-4)Glc): -0.438
- glycan array binding signal (z-score) (Fuc(a1-2)Gal(b1-4)GlcNAc): -0.425
- glycan array binding signal (z-score) [6]: -0.449
- glycan array binding signal (z-score) [7]: -0.301
- glycan array binding signal (z-score) [8]: -0.316
- glycan array binding signal (z-score) [9]: -0.045
- glycan array binding signal (z-score) [10]: -0.426
- glycan array binding signal (z-score) (Fuc(a1-2)GlcNAc): -0.422
- glycan array binding signal (z-score) (Fuc(a1-2)[Gal(a1-3)]Gal): -0.353
- glycan array binding signal (z-score) [11]: -0.435
- glycan array binding signal (z-score) [12]: -0.41
- glycan array binding signal (z-score) [13]: 0.468
- glycan array binding signal (z-score) [14]: -0.413
- glycan array binding signal (z-score) [15]: -0.39
- glycan array binding signal (z-score) [16]: -0.436
- glycan array binding signal (z-score) [17]: -0.401
- glycan array binding signal (z-score) [18]: -0.321
- glycan array binding signal (z-score) [19]: -0.061
- glycan array binding signal (z-score) [20]: -0.387
- glycan array binding signal (z-score) [21]: -0.417
- glycan array binding signal (z-score) (Fuc(a1-3)GlcNAc): 1.07
- glycan array binding signal (z-score) [22]: -0.418
- glycan array binding signal (z-score) [23]: -0.274
- glycan array binding signal (z-score) [24]: -0.407
- glycan array binding signal (z-score) [25]: -0.442
- glycan array binding signal (z-score) [26]: -0.403
- glycan array binding signal (z-score) (Fuc(a1-4)GlcNAc): -0.36
- glycan array binding signal (z-score) (Fuc(b1-3)GlcNAc): -0.424
- glycan array binding signal (z-score) (Gal(a1-2)Gal): -0.423
- glycan array binding signal (z-score) (Gal(a1-3)Gal): -0.358
- glycan array binding signal (z-score) (Gal(a1-3)Gal(b1-3)Glc): -0.42
- glycan array binding signal (z-score) (Gal(a1-3)Gal(b1-3)GlcNAc): -0.415
- glycan array binding signal (z-score) (Gal(a1-3)Gal(b1-4)GlcNAc): -0.421
- glycan array binding signal (z-score) [27]: -0.41
- glycan array binding signal (z-score) (Gal(a1-3)GlcNAc): -0.355
- glycan array binding signal (z-score) [28]: -0.346
- glycan array binding signal (z-score) (Gal(a1-4)Gal(b1-4)Gal): 3.18
- glycan array binding signal (z-score) (Gal(a1-4)Gal(b1-4)GalNAc): 2.42
- glycan array binding signal (z-score) (Gal(a1-4)GlcNAc): -0.362
- glycan array binding signal (z-score) (Gal(a1-6)Glc): 2.87
- glycan array binding signal (z-score) (Gal(b1-2)Gal): -0.103
- glycan array binding signal (z-score) (Gal(b1-3)Gal): -0.354
- glycan array binding signal (z-score) (Gal(b1-3)GalNAc): -0.26
- glycan array binding signal (z-score) [29]: 2.29
- glycan array binding signal (z-score) [30]: 3.05
- glycan array binding signal (z-score) [31]: -0.433
- glycan array binding signal (z-score) [32]: -0.428
- glycan array binding signal (z-score) [33]: -0.256
- glycan array binding signal (z-score) [34]: -0.427
- glycan array binding signal (z-score) [35]: -0.427
- glycan array binding signal (z-score) [36]: -0.382
- glycan array binding signal (z-score) [37]: -0.259
- glycan array binding signal (z-score) [38]: -0.438
